Data on 88 sequences can be found in the supplement of paper PMC11417369.

± gives the standard deviation of the averaged measurements. Some of the results follow.

This assay deals with PfAP2-LT AP2 domain (GST-tagged). Description: gcPBM binding intensity (ln(normalized median fluorescence intensity)); higher = stronger DNA binding. The method in brief: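 Binding intensity is the highest Masliner-normalised natural-log median intensity over replicate spots in either probe orientation. To obtain it, GST-tagged P. falciparum DNA-binding domains made in E. coli were incubated for 1 h on an Agilent 4 × 180k array of primer-extended double-stranded 36-bp intergenic genomic probes plus negative controls. Detection used Alexa488 anti-GST antibody with scanning at 488 nm.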
For the sequence “ATATATATATATATATGTACATATATATATGTATAT [XGTACX_site3959]”, the “gcPBM binding intensity (ln)” value was 9.37 ± 0.36.

Regarding “TATACATACAGACCCACACACAAAAAAAAAAAAAAA [CACACA_site6536]”, the “gcPBM binding intensity (ln)” value turned out to be 9.35 ± 0.5. Consider “ATATTATTTTAAAGTACACACATATATTAATATATA [CACACA_site2315]”, for which the “gcPBM binding intensity (ln)” value was found to be 8.76 ± 0.38. “ATGTATTAAAAAAATTGTACTATAAAATGTAACCGC [XGTACX_site8083]”: the “gcPBM binding intensity (ln)” value is 8.84 ± 0.37. As for “ATAATATATATATATGCATGTACATATTTATCTTTA [TGCATGCA_site32]”, the “gcPBM binding intensity (ln)” value stood at 8.93 ± 0.36. The result for “AAGGCAAGCACTTAAACATGCATATAATAATATCAT [TGCATGCA_site698]” reads 8.87 ± 0.4; that for “AAAAAAAAAAAAAACATACACACAAATATATACATA [CACACA_site4010]”, 9.05 ± 0.45. Then “GAATTTTTTTAATGTTGTACTTTTTTTTTTTTTTCT [XGTACX_site648]”, with 8.62 ± 0.59. For the sequence “ACATATATATATATATATATATATATATTACATTTA [CACACA_negctrl_site627]”, the “gcPBM binding intensity (ln)” value came to 9.28 ± 0.24. The result for “TTTTTGTTAAACAGGGTGCTAATCTGAATTAATATT [GTGCAC_site9908]” reads 8.37 ± 0.39. Then “ACATATTTTATTTTTTGTACACATATATTATTTTTT [XGTACX_site6528]”, with 9.14 ± 0.55.

Regarding “TTATACATAAATTTTGTACACACAAAAAAAAAAAAG [CACACA_site8374]”, the “gcPBM binding intensity (ln)” value turned out to be 8.9 ± 0.47. The result for “TTTCAAAAGTAATACTGTACTTATTTTTATGATTTA [XGTACX_site4184]” reads 8.48 ± 0.47; that for “TAGAAAAACATTACGTGTACCAAACATCCTAGCAAC [XGTACX_site4888]”, 9.21 ± 0.32. With “ATATTATTTATAGGGTGTACCTTATTATTATAAGAA [XGTACX_site7148]”, the “gcPBM binding intensity (ln)” value amounted to 8.38 ± 0.47.

Regarding “TATAATATTATACATAGTACACATCACACATCGCAA [XGTACX_site4650]”, the “gcPBM binding intensity (ln)” value was 9.1 ± 0.26. On to “TATATACTTTTATGTACACACCTATAATATGGGTGA [CACACA_site5044]”, for which the “gcPBM binding intensity (ln)” value amounted to 8.85 ± 0.44. For the sequence “AAAAAAAAAAAAAATACACACATAAAATAAATAACA [CACACA_site439]”, the “gcPBM binding intensity (ln)” value was 8.99 ± 0.52. “TTTGGTTATATTTAAAAAAGACTAATGAAAATTAAA [XGTACX_negctrl_site526]”: the “gcPBM binding intensity (ln)” value worked out at 8.09 ± 0.53. Then “ATATATATATATTACACACACACAAAAAAAATAAAG [CACACA_site118]”, with 9.72 ± 0.28; and “AATTTACAAATATAATGTACATAATTATATATATAT [XGTACX_site278]”, with 8.7 ± 0.43; and “CATACCATACATAAAACACACAAAATTTACAGAATA [CACACA_site7451]”, with 9.15 ± 0.44.

In the case of “AATAGTAAAAATCACTGTACGTTTATTTTTAAAATG [XGTACX_site1035]”, the “gcPBM binding intensity (ln)” value amounted to 8.63 ± 0.56. The result for “CCATATACAACCATACGTACATATATATATATATAT [XGTACX_site8193]” reads 9.67 ± 0.24; that for “TTTTTATGGATATTTATATTATATTATGATTAAAAA [TGCATGCA_negctrl_site204]”, 8.1 ± 0.37; that for “GACATATAAATATACACACATACGTAAGTATATTAA [CACACA_site1790]”, 9.03 ± 0.33. For the sequence “TGTATAATATATATATGTACTTATGTATAATATTAT [XGTACX_site4328]”, the “gcPBM binding intensity (ln)” value was 8.7 ± 0.44. As for “AAGATATCTAAGGAAATTAAACTACCAAAATATATA [TGCATGCA_negctrl_site338]”, the “gcPBM binding intensity (ln)” value was determined as 8.53 ± 0.56. Then “TGCATAAAAGTAAAAACATGCATGCCGTGGTATCTT [TGCATGCA_site664]”, with 9.1 ± 0.3; and “AATATATTTATAAGCACACACTAATAAACACAGACA [CACACA_site4377]”, with 9.37 ± 0.27. Then “AAATATATATATATATATATATATGTGTGTGTATAT [GTGCAC_negctrl_site1]”, with 9.79 ± 0.45; and “GTACATAATTATTATGCACACATATTTTTATGTATT [CACACA_site8132]”, with 9.08 ± 0.33. Then “AATAATACAAAAGTTCAACAAAAAAAAAAAAAAAAT [CACACA_negctrl_site952]”, with 8.71 ± 0.49. Take “CTTTATAATATTTGTTGTACACAAATATAACATATT [XGTACX_site709]”: the “gcPBM binding intensity (ln)” value was 8.76 ± 0.43. Then “ATTTAAATATATTATTGTACATATACCTAATAAGAA [XGTACX_site6655]”, with 8.41 ± 0.47; and “ACTCCTATATAAATGAACCATATTCATAATATATAT [CACACA_negctrl_site1636]”, with 8.66 ± 0.41; and “TAATAATAATTATATACACACATGTATATTATATTT [CACACA_site1501]”, with 8.86 ± 0.38. Then “AAATGAAAGAATTAAAGTACATTTATATAATTTTAA [XGTACX_site3540]”, with 8.51 ± 0.61; and “AAGAGAAAAACATACACACACAACAAAATATGTATA [CACACA_site2719]”, with 9.64 ± 0.28. Then “TAAATATGCTCACAGATGCACTAACACATTTTTATA [GTGCAC_site9997]”, with 8.75 ± 0.49; and “TTTTATACATAAATGTGTACGTATATATAATGAATT [XGTACX_site2762]”, with 8.7 ± 0.39. Take “TATTGTAGAGGCAAAAGTACACATTTAATAATTTCC [XGTACX_site1151]”: the “gcPBM binding intensity (ln)” value worked out at 8.68 ± 0.46. The result for “ATCTATATAATATATACACACAAATATACAAAAAAA [CACACA_site1013]” reads 9.06 ± 0.45.

As for “TTATATTATATATATAGTACACATGTAATATTTCAA [XGTACX_site1791]”, the “gcPBM binding intensity (ln)” value stood at 8.66 ± 0.33. The result for “TACATGCATTTCTCATGTACATAATTTTCCCATATT [XGTACX_site5158]” reads 8.73 ± 0.38; that for “ATAAATTAAAGACACACACACATCTGGATACCCCTA [CACACA_site7546]”, 9.63 ± 0.25. “TATGCTACAAGGAGAACACACAATTGCCACTTTTGG [CACACA_site2166]”: the “gcPBM binding intensity (ln)” value amounted to 9.01 ± 0.37.

Regarding “AACCATTATTTCTCTACACACATTTATGTCATTTAC [CACACA_site1499]”, the “gcPBM binding intensity (ln)” value turned out to be 9.48 ± 0.45. Then “TCCTTATATGGGCACACACACACAATAAAATGAAAA [CACACA_site1030]”, with 9.59 ± 0.48; and “AAAATTAGGTATATATGTACATATATAAATATATAT [XGTACX_site3555]”, with 8.96 ± 0.45; and “GTTTATATTAAACAAACACACACATATATATATATA [CACACA_site8749]”, with 9.57 ± 0.18.

For “ATTTAGAATGCGTATACACACATATATAGATTTGCT [CACACA_site626]”, the “gcPBM binding intensity (ln)” value is 9.11 ± 0.28. The result for “AAAAAAATTAGACACACACACACATATAAATATGTA [CACACA_site6618]” reads 9.94 ± 0.26; that for “AATAGAACTATTACACGTACAGAACATGAATTAGTT [XGTACX_site7518]”, 8.91 ± 0.45; that for “TTTTTTAATTAGTACAAACACACATATACAGACAAA [CACACA_site2564]”, 8.84 ± 0.4.

Turning to “TGTTATATATGTAATTGTACACTTATACAAAATTAT [XGTACX_site6350]”, the “gcPBM binding intensity (ln)” value was determined as 8.59 ± 0.44. Then “TATTTAAGAGTATGAACACACATCATACACATATAA [CACACA_site3617]”, with 8.88 ± 0.38; and “TTATTAATATATAAATGTACATATACAATACATAAA [XGTACX_site5571]”, with 8.63 ± 0.38. The result for “TATGTTTGTGTATATATTTATTTTTATGTAATTATA [GTGCAC_negctrl_site219]” reads 8.82 ± 0.42; that for “CAAAATATAACATCATCACACACATATACTTTATAT [CACACA_site8292]”, 9.38 ± 0.38. “ATTTAAAAATAAAGAACACACATATGTAAAATATAT [CACACA_site3754]”: the “gcPBM binding intensity (ln)” value was found to be 8.98 ± 0.48.

Turning to “TCGACAATTTTATAAAGTACTTATTAGAAATATGAA [XGTACX_site7133]”, the “gcPBM binding intensity (ln)” value stood at 8.31 ± 0.4.

Consider “CCATTTAAAACATTTTGTACTTATTTTACATTTCTG [XGTACX_site4270]”, for which the “gcPBM binding intensity (ln)” value is 8.87 ± 0.48.

In the case of “GATTCATTTCATAATACACACAACAAATATTTCAAA [CACACA_site120]”, the “gcPBM binding intensity (ln)” value turned out to be 8.75 ± 0.41. The result for “AGAAAAAAAAATTATACATGCATATACGTTTATTTT [TGCATGCA_site529]” reads 8.7 ± 0.52; that for “AAACAAATAAAATTTATTAAAAAGGTCATATTATTA [CACACA_negctrl_site85]”, 8.46 ± 0.58.

Consider “ATATTTTATATTTCTTGTACATATATTTGTAGATAT [XGTACX_site1140]”, for which the “gcPBM binding intensity (ln)” value was 8.85 ± 0.45. The result for “TTTCTTACAACAACAACAAAAAAAAATAAATAAAAT [GTGCAC_negctrl_site711]” reads 8.51 ± 0.49; that for “TATTATTTTTTTATTCTATTAAAAAGAAAAAAATGA [CACACA_negctrl_site407]”, 7.88 ± 0.47; that for “AATTTATTTTTAAAAAGTACATACTTAAGAAAACGA [XGTACX_site3660]”, 8.4 ± 0.4. Then “TATATATATATATAAACACACATAAATATAAATATA [CACACA_site1121]”, with 9.01 ± 0.32; and “TCTTTTACAAAAGCTATAACATTCACCACATTATAA [GTGCAC_negctrl_site133]”, with 8.48 ± 0.47; and “ATATATATATTTTATGCATGTTCATTTTCTATATTT [TGCATGCA_site442]”, with 9.09 ± 0.42. In the case of “AAAAAAAAAATATACACACACATATATATATATATA [CACACA_site3404]”, the “gcPBM binding intensity (ln)” value came to 9.885 ± 0.064. On to ATAATATATACGTGTGTGCACATGACAAAAGCATAT, for which the “gcPBM binding intensity (ln)” value came to 9.66 ± 0.27.

Consider “GTTAATGTGGTTACTTGTACATATTAACGTCTTTTT [XGTACX_site2617]”, for which the “gcPBM binding intensity (ln)” value was found to be 8.9 ± 0.46.

“ATAAAAAAAAGACACACACACATATATATATATATA [CACACA_site3073]”: the “gcPBM binding intensity (ln)” value is 10.2 ± 0.18.

On to “TCAACACACGTGGAATGTACTTTAGTATAAGAATTC [XGTACX_site7842]”, for which the “gcPBM binding intensity (ln)” value came out at 9.04 ± 0.49. The result for “TAAATATATTTCATGACATGCAACTTGTTTTTTTGT [TGCATGCA_site456]” reads 8.94 ± 0.5.

As for “CAAAGGGAAATTAACACACACATATTTATATTTATA [CACACA_site7202]”, the “gcPBM binding intensity (ln)” value came out at 9.2 ± 0.47. For “ATGTATATGATTAAATGTACGTAAACAAATTTGTAA [XGTACX_site8174]”, the “gcPBM binding intensity (ln)” value came to 8.88 ± 0.38. Then “ACCACATAAAACAAATGTACTTGAAATATATGCGTA [XGTACX_site5155]”, with 8.92 ± 0.4; and “TGCAGTCTGGAGAAGAGTACATAGTATCTGGTAGCT [XGTACX_site2021]”, with 8.82 ± 0.49; and “AAGAAAACTTAAAATAAAAGCATATTTTATCTTACA [TGCATGCA_negctrl_site366]”, with 8.32 ± 0.46. Then “ATATATATATATATATGTACACACATCAATCATATT [XGTACX_site4005]”, with 9.96 ± 0.33; and “AGAGTACAAGTAAATACACACATATAGATGAAAATA [CACACA_site6635]”, with 9.33 ± 0.54; and “TATTAATAAATTTATAAAACAGGTATATATATATAT [CACACA_negctrl_site615]”, with 9.12 ± 0.15. Turning to “AAAAAAAAAAGACACACACACAAAATAAACAAACAA [CACACA_site7308]”, the “gcPBM binding intensity (ln)” value came out at 10.1 ± 0.33.
